Reference: paper PMC9747160
These are yes or no findings as the source states them, for the method shown. Binding seen in cells or lysates may run through a third protein. Some binding calls cover weakened binding; strength is not graded here. Sequences can lack the tags named with a protein.

By UniProt entry, the sequences of proteins in these tests, tags left out. Residues count along the entry.
UniProt Q9HC16, residues 197-384: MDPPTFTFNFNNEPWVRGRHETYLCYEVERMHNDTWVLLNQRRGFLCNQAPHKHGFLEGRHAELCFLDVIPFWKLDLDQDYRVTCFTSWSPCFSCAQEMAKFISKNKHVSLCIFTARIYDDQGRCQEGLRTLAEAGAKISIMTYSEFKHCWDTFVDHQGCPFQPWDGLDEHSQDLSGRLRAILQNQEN

Target: T1, Epstein-Barr virus (EBV) BORF2, ribonucleotide reductase (RNR) large subunit, C-terminal 3xFLAG (Epstein-Barr virus (EBV, HHV-4)) (UniProt P03190)
T1 sequence: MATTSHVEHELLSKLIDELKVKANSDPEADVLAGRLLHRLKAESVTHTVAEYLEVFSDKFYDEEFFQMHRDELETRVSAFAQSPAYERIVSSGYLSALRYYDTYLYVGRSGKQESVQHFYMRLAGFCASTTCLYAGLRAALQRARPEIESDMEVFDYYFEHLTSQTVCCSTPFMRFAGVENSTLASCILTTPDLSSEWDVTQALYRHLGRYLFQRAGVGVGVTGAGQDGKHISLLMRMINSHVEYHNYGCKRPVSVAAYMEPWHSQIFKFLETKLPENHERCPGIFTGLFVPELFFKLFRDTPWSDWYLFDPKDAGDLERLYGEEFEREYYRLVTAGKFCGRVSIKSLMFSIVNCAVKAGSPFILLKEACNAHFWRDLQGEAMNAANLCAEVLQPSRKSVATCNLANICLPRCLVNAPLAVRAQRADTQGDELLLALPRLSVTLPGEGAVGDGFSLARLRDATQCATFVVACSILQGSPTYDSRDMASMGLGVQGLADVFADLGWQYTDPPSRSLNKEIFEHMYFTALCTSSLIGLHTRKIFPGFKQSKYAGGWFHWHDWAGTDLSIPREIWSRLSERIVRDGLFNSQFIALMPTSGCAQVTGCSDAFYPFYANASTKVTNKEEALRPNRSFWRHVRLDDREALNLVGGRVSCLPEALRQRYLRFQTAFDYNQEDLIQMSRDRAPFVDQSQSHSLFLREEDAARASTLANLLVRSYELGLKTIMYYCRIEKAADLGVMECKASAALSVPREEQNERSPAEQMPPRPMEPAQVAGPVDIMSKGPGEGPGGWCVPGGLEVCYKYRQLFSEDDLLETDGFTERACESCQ
Assay: co-IP; RNR-3xFLAG and A3-EGFP co-expressed in 293T cells; clarified lysate (50 mM Tris-HCl pH 7.4, 150 mM NaCl, 10% glycerol, 0.5% IGEPAL, 100 ug/ml RNaseA) on anti-FLAG M2 magnetic beads at 4°C overnight; eluted with FLAG peptide; anti-GFP immunoblot

**Q.** Which binding does the source give for “A3A_L1A3G_(209-217), C-terminal EGFP (from UniProt P31941-1 1-24; Q9HC16-1 209-217; P31941-1 31-199)” here?
**A.** binds

**Q.** How did the binding turn out when “A3A_L3A3G_(247-254), C-terminal EGFP (from UniProt P31941-1 1-59; Q9HC16-1 247-254; P31941-1 68-199)” was run?
**A.** binds

**Q.** “A3A_L7A3G_(317-322), C-terminal EGFP (from UniProt P31941-1 1-131; Q9HC16-1 317-322; P31941-1 138-199)” was tested. Which binding did it give?
**A.** no binding

**Q.** Which binding does the source give for “A3Gctd_(197-384)_L7A3A_(132-137), C-terminal EGFP (from UniProt Q9HC16-1 197-316; P31941-1 132-137; Q9HC16-1 323-384)” here?
**A.** binds

**Q.** “human APOBEC3A, C-terminal EGFP (from UniProt P31941-1 1-199)” was tested. Which binding did it give?
**A.** binds

**Q.** For “human APOBEC3G catalytic domain, A3Gctd_(197-384), C-terminal EGFP (from UniProt Q9HC16-1 197-384) (domain or fragment)”, which binding is on record?
**A.** no binding
